Laboratory results reported in PubChem BioAssay AID485281 (National Center for Advancing Translational Sciences (NCATS), 2010).
Hit rate of the full screen: of about 350,000 compounds, about 260 (0.074%) were called active. The inconclusive results got no clear call from the source; some entries with a clear call stand among them for comparison. The call rests on the fitted dose curve; in most records, active means well fitted inhibition curve with a large enough effect; inconclusive means small, poorly fitted or top-dose-only effect; inactive means no such curve, though single readings can be large or run the other way. Potencies beside an inconclusive call are fits to weak or partial responses and may not hold up.

Each compound was assayed against Ferritin light chain (Equus caballus) (UniProt P02791) (assay: qHTS Assay for Identification of Novel General Anesthetics). Conditions: apoferritin/1-aminoanthracene competitive binding, fluorescence; series mostly up to 77.5 µM.
Chain of UniProt P02791 (P02791 whole entry, looked up): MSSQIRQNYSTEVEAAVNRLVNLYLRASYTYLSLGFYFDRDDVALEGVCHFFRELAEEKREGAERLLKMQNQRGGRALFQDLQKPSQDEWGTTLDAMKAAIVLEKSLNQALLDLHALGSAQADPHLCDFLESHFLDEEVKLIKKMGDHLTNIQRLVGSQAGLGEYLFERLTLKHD
How it was run: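 Probe: 1-aminoanthracene (50% saturated, PBS). Protein: horse-spleen apoferritin, 10 uM. Incubation: 10 min, room temperature. Detection: 380 nm excitation, 535 nm emission. Analysis: normalized response, four-parameter Hill.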
Further: nearly all actives have a fitted effect of over 20% in size.
Potency means the concentration at half of the fitted maximal effect; tags describe the fitted curve by direction and shape.

Structure (SMILES)	Potency
Cc1ccc(-c2csc3nc[nH]c(=O)c23)cc1C	inconclusive: 25.1 µM [inhibitor, single point]
CC1CCCN(C(=O)CSc2nnc(-c3c[nH]c4ccccc34)o2)C1 (centres undefined)	inconclusive: 31.6 µM [inhibitor, partial curve]
O=C1N=C(N2CCc3ccccc3C2)S/C1=C\c1cccc(O)c1	inconclusive: 14.1 µM [inhibitor, partial curve]
O=C(Nc1ccc(S(=O)(=O)N2CCOCC2)cc1)c1ccc(Cl)s1	inconclusive: 35.5 µM [inhibitor, partial curve]
CCOc1ccc(NC(=O)c2ccc(NC(=O)N3CCSc4ncccc43)cc2)cc1	inactive
N#C[C@]1(S(=O)(=O)c2ccccc2)C[C@@H]2ON=C(c3cccc(Br)c3)[C@@H]2C1	inconclusive: 22.4 µM [inhibitor, partial curve]
CN1C(c2ccccc2)CCOS1(=O)=O (centres undefined)	inactive
O=C(N/N=C/c1cccc(O)c1)c1ccccc1O	inactive
COc1ccccc1Cc1nc(-c2ccncc2)no1	inactive
CCOc1ccc(CCNC(=O)c2cn(CC)c3ccc(S(=O)(=O)N4CCc5ccccc5C4)cc3c2=O)cc1OCC	inconclusive: 31.6 µM [inhibitor, partial curve]
Nc1ccc(SCc2cccnc2)cc1	inconclusive: 35.5 µM [inhibitor, single point]
COc1ccccc1N1CCN(C(=S)Nc2ccccc2)CC1	inactive
CSc1nc(-c2ccccc2F)c(C#N)c(=O)n1C	inactive
C=CCn1c(C)cc(C(=O)Cn2c(C(C)O)nc3ccccc32)c1C (centres undefined)	inconclusive: 35.5 µM [inhibitor, single point]
Cc1cccc2sc(NNC(=O)c3ccc(S(=O)(=O)N4CC(C)CC(C)C4)cc3)nc12 (centres undefined)	inconclusive: 22.4 µM [inhibitor, partial curve]
CCCc1sc(N)nc1-c1ccc(C)cc1	inconclusive: 28.2 µM [inhibitor, single point]
COc1ccc(CNC(=O)/C=C/c2ccc(S(=O)(=O)N3CCOCC3)cc2)cc1	inconclusive: 25.1 µM [inhibitor, partial curve]
O=C1[C@H]2[C@H](ON3CCCC[C@H]23)C(=O)N1c1cccc(C(F)(F)F)c1	inconclusive: 25.1 µM [inhibitor, partial curve]
O=C(CCCOc1ccc(Cl)cc1Cl)N/N=C\C1CCCCC1	inconclusive: 35.5 µM [inhibitor, partial curve]
CCCN(CC(=O)Nc1ccccc1C)C(=O)c1ccc(N2CCCCCC2)c([N+](=O)[O-])c1	inconclusive: 20 µM [inhibitor, partial curve]
Clc1ccccc1-c1ncc(-c2ccccc2)o1	inconclusive: 15.8 µM [inhibitor, partial curve]
O=C(CSc1nnc(COc2ccccc2Cl)o1)NC(=O)NC1CCCC1	inconclusive: 28.2 µM [inhibitor, partial curve]
O=c1cc2c(nn1Cc1ccccc1Cl)-c1ccccc1CC2	inconclusive: 28.2 µM [inhibitor, partial curve]

Structure (SMILES)	Potency
COc1ccc(CC(=O)Nc2ccc(S(=O)(=O)NC(C)C)cc2)cc1	inconclusive: 35.5 µM [inhibitor, partial curve]
Cc1ccc(CN(C)C(=O)c2cc(COc3cccc(C(F)(F)F)c3)on2)o1	inconclusive: 20 µM [inhibitor, partial curve]
CCC1CC2CC(NC(C)=O)C1C2 (centres undefined)	inconclusive: 25.1 µM [inhibitor, partial curve]
COCCN1C(=O)c2[nH]nc(-c3ccccc3O)c2C1c1ccc(Cl)c(Cl)c1 (centres undefined)	inconclusive: 1.78 µM [inhibitor, full curve]
CCOC(=O)/C=C/C(=O)Nc1ccc(Oc2ccccc2)cc1	inconclusive: 35.5 µM [inhibitor, partial curve]
O=C(CSc1nc(C2CC2)nc2ccccc12)N1c2ccccc2Sc2ccc(C(F)(F)F)cc21	inactive
Cc1cccc(N(C)S(=O)(=O)c2ccc3c(c2)C(C)(C)C(=O)N3C)c1	inconclusive: 56.2 µM [inhibitor, single point]
O=C(CSc1ccc(-c2ccc(Cl)cc2)nn1)N1CCCc2ccccc21	inconclusive: 14.1 µM [inhibitor, partial curve]
c1cncc(Cc2cc3ccccc3[nH]2)c1	inconclusive: 39.8 µM [inhibitor, partial curve]
O=C(COC(=O)CCc1nc2ccccc2s1)Nc1cccc(S(=O)(=O)N2CCOCC2)c1	inconclusive: 11.2 µM [inhibitor, partial curve]
Cn1c(-c2ccc3c(c2)OCO3)cnc1NCc1ccc(Cl)cc1	inconclusive: 22.4 µM [inhibitor, partial curve]
COc1ccccc1CCN1C(=S)NC(C)(C)CC1(C)O (centres undefined)	inconclusive: 35.5 µM [inhibitor, partial curve]
COc1ccc2c(CC(=O)OCC(=O)c3ccccc3OC)coc2c1	inconclusive: 11.2 µM [inhibitor, partial curve]
Cc1cc(C)c2[nH]c(=O)c(CN(Cc3ccco3)C(=S)NCC3CCCO3)cc2c1 (centres undefined)	inactive
COc1ccc(C(=O)NC(NC(=O)c2ccc(OC)c(OC)c2)c2ccccc2F)cc1OC	inactive
CCc1ccc(C(=O)c2cn(CC(=O)Nc3ccc(OC)c(OC)c3)c3ccc(C)cc3c2=O)cc1	inconclusive: 10 µM [inhibitor, full curve, poor fit]
CCc1ccc(OCC(=O)N(CC)CC)cc1	inconclusive: 35.5 µM [inhibitor, partial curve]
COc1ccccc1N1CCN(c2ncccc2-c2nc(-c3ccc(Cl)cc3)no2)CC1	inactive
CSc1ccc(CNc2ccc(Cl)cc2)cc1	inconclusive: 8.91 µM [inhibitor, full curve]
Cc1ccc(CNC(=O)CCn2nc(-c3ccc(Cl)cc3)ccc2=O)cc1	inconclusive: 31.6 µM [inhibitor, partial curve]
O=C(NN=C1C2CC3CC1CC(Cl)(C3)C2)c1cccs1	inconclusive: 39.8 µM [inhibitor, single point]
Cc1ccc(C(C)(C)C)c(OCCCn2ccnc2)c1	inconclusive: 22.4 µM [inhibitor, partial curve]
COc1cccc(OCCNc2cc(N3CCCCC3)ccc2[N+](=O)[O-])c1	inconclusive: 44.7 µM [inhibitor, partial curve]

Structure (SMILES)	Potency
CN1CCN(c2nc(-c3ccco3)cc(C(F)(F)F)n2)CC1	inactive
C/C(=N\NC(=O)COc1cccc(Cl)c1)c1ccc2c(c1)OCCO2	inconclusive: 50.1 µM [inhibitor, single point]
Cc1ccc2c(c1)c(N=NC(N)=S)c(O)n2Cc1ccccc1	inactive
CCOc1ccc(N(CC(=O)NCc2ccccc2Cl)S(=O)(=O)c2c(C)[nH]c(=O)[nH]c2=O)cc1	inactive
O=C(CSc1nnc(C2COc3ccccc3O2)o1)N1CCOCC1 (centres undefined)	inconclusive: 35.5 µM [inhibitor, partial curve]
Cc1nc2ccc3nc(NC(=O)c4ccc(S(=O)(=O)N5CCOCC5)cc4)sc3c2s1	inactive
Fc1ccc(CN2CCc3nc(Nc4ccccc4)ncc3C2)cc1F	inconclusive: 50.1 µM [inhibitor, single point]
CCC(=O)NCc1c(Cl)cccc1-n1cccc1	inconclusive: 31.6 µM [inhibitor, partial curve]
CN(C)c1ccc(N=Nc2ccccc2C(=O)OCC(=O)N2CCCCCC2)cc1	inconclusive: 44.7 µM [inhibitor, single point]
COc1ccc(C2C(=O)N(C3CCCCCC3)CC(=O)N2Cc2ccc(C)cc2)cc1OC (centres undefined)	inactive
Cc1ccccc1OCCCCCn1ccnc1	inconclusive: 28.2 µM [inhibitor, partial curve]
CCOc1ccc(-n2c(=S)sc3c(=O)[nH]c(SCC(=O)N4CCC(C)CC4)nc32)cc1	inactive
Cc1ccc(N2C(=O)NC3(CCCCC3)C2=O)cc1	inactive
CC(/C=N/NC(=O)Cn1nccc1C)=C\c1ccc(C(C)C)cc1	inconclusive: 22.4 µM [inhibitor, single point]
NNC(=O)c1ccc(-c2cccc([N+](=O)[O-])c2)o1	inconclusive: 8.91 µM [inhibitor, partial curve]
COc1ccc(NC(=O)CSc2nc3ccccc3c(=O)n2CCCN2CCCCC2)c(OC)c1	inconclusive: 14.1 µM [inhibitor, partial curve]
Cc1ccc(-n2c(=O)[nH]c3c(C(N)=O)nc(-c4ccc(C)o4)nc32)cc1	inconclusive: 31.6 µM [inhibitor, partial curve]
Cc1ccc2c(c1)nnn2C1CCN(CC(=O)c2ccc(Cl)cc2)CC1	inconclusive: 22.4 µM [inhibitor, partial curve]
COC(=O)/C(N=Nc1cccc(C(F)(F)F)c1)=C(\C)O	inconclusive: 31.6 µM [inhibitor, partial curve]
O=C(CN1CCCCC1)Nc1nnc(-c2ccccc2)s1	inconclusive: 56.2 µM [inhibitor, single point]
CC1CCCN(CCCOc2ccc([N+](=O)[O-])cc2)C1 (centres undefined)	inactive
O=C(Nc1nc2cc3c(cc2s1)OCO3)C1CCCCC1	inconclusive: 28.2 µM [inhibitor, single point]
CCO[C@H]1OC(C(=O)N2CCN(Cc3ccccc3)CC2)=C[C@@H](C2CCCCC2)[C@@H]1CCCO	inconclusive: 35.5 µM [inhibitor, partial curve]
